Source: publication PMC4336329 (PLoS ONE, 2015)
About 2,200 (0.71%) of roughly 310,000 compounds showed an effect of 50% or more. Effects have a minus sign here. The list shows a part of the results.

Target: human ether-à-go-go-related gene (hERG) potassium channel (human, UniProt Q12809)
Assay: primary screen, population patch clamp on CHO cells stably expressing hERG

human ether-à-go-go-related gene (hERG) potassium channel, sequence (Q12809 whole entry, looked up): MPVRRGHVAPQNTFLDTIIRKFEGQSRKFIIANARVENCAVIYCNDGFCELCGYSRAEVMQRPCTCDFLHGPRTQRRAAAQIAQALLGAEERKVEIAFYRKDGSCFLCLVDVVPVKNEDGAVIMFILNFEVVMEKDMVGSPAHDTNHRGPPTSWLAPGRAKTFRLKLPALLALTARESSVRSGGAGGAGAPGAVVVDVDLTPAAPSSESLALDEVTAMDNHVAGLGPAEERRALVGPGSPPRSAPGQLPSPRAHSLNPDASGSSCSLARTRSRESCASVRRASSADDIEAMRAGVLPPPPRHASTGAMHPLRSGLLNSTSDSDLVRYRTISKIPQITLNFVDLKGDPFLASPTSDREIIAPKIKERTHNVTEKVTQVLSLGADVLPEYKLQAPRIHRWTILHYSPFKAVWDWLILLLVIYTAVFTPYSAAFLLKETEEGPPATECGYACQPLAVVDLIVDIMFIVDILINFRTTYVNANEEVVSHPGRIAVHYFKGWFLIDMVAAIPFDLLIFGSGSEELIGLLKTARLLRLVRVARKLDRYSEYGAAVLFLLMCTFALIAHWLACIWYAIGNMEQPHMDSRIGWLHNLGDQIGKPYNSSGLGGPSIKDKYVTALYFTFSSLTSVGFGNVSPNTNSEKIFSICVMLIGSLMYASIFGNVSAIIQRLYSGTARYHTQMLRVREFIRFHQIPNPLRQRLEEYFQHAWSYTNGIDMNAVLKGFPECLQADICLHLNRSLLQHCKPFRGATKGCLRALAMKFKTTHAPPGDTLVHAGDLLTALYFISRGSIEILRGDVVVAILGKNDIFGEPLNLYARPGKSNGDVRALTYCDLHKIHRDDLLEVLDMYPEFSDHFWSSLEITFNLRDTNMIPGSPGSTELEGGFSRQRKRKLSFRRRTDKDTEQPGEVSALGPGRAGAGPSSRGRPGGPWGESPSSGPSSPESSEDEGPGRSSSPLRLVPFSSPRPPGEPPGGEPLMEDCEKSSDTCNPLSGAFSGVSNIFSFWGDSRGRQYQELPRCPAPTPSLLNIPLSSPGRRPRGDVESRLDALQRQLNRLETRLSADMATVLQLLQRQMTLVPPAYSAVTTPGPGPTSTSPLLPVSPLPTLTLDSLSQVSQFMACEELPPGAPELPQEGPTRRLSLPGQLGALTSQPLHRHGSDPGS

SMILES | hERG current change (%, negative = inhibition) at 1uM [%]
O=C(CN1CCC(NC(=O)c2ccc(F)cc2)CC1)NCc1ccccc1F | -0.422
CCC(=O)N1CCN=C1SCc1cccc(F)c1 | 11.5
COc1ccc(-c2c(-c3cc(OC)cc(OC)c3)n(C)c3ccc(-c4cc(F)cc(OC)c4)cc23)cc1 | 20
CCOC(=O)c1ccc(N=CC2=C(O)CC(C)(C)CC2=O)cc1 | 6.54
COc1cc(OC)cc(C(=O)Nc2ccccc2-c2nnn(CC(N)=O)n2)c1 | 6.37
COc1ccc(C(C(=O)NC(C)(C)C)N(CCC(C)C)C(=O)CCC(=O)Nc2cc(C)on2)cc1 (stereo not drawn) | 8.23
CCOC(=O)c1c(OCCO)nn(-c2ccc(Cl)cc2)c1N | 7.71
CC1(C)CC(=O)C(C(=S)Nc2ccccc2)=C(NCCN2CCOCC2)C1 | -13.3
Oc1c(N=Nc2ccccc2)sc2ccccc12 | -7.63
CN(C(=S)NC(=O)c1ccccc1Br)C1CCCCC1 | 6.76
COC(=O)c1ccsc1NC(=O)C1COc2ccccc2O1 (stereo not drawn) | 11.2
Cc1ccoc1C(=O)N1CCCC(CO)(Cc2ccc(F)cc2)C1 (stereo not drawn) | 4.74
COc1ccc(CSc2nc(CSC)cc(N3CCOCC3)n2)cc1 | 7.83
O=C(Nc1ccc2c(c1)OCCO2)C1CCN(S(=O)(=O)c2cccc3nsnc23)CC1 | 15.1
COc1ccc(C(=O)NCCn2ccc3ccccc32)cc1 | 5.77
Cl.NC1=NC2(CCCCC2)N(c2ccc(F)cc2F)C(N)=N1 | 12.7
CN(CC(=O)NC1CCCCC1)S(=O)(=O)c1ccc(Cl)cc1 | -8.33
O=C(NC1CCCC1)C1c2ccccc2C(=O)N1CCCN1CCOCC1 (stereo not drawn) | 1.61
CC(=O)/C=C1\SC(CC(=O)O)C(=O)N1c1ccccc1 (stereo not drawn) | 14.8
Nc1ccc(Sc2nc3ccccc3[nH]2)cc1 | 10.5
FC(F)(F)c1cc(-c2ccc(Cl)cc2)nc2ncnn12 | -3.37
Cc1ccc(C23CC4CC(CC(C(N)=O)(C4)C2)C3)cc1 | 13.4
COC(=O)c1ccc(CS(=O)(=O)c2ccccc2C)o1 | 2.66

SMILES | hERG current change (%, negative = inhibition) at 1uM [%]
CCOC(=O)c1c(-c2ccncc2)csc1N | 8.1
CCOC(=O)C1=C(C)OC(N)=C(C#N)C1C1CCCCC1 (stereo not drawn) | 3.26
Nn1c(SCc2nc3ccccc3[nH]2)nnc1C1CCCCC1 | 3.15
CCc1cc2c(=O)n(-c3ccc(C)cc3)cnc2s1 | -0.45
CC(=O)c1ccc(N(C(=O)c2ccco2)C(C(=O)NC2CCCC2)c2cccs2)cc1 (stereo not drawn) | -3.62
CC(C)=C(NC(=O)c1ccccc1)C(=O)NC(Cc1ccccc1)C(=O)O (stereo not drawn) | 16.2
CCOC(=O)c1c(C)[nH]c(C)c1C(=O)COC(=O)c1cc(OC)cc(OC)c1 | 15.4
Cc1cc(C)n(-c2nnc(C)c(=O)[nH]2)n1 | -2.17
Cc1cccc(NCc2ccc(O)c3ncccc23)c1C | 9.87
Cc1noc(C)c1COc1cccc(C(=O)Nc2ccccc2)c1 | 16.3
COC(=O)c1cccc(NS(=O)(=O)c2cccs2)c1C | 4.58
O=C(COC(=O)C1CC2CCCC(C1)C2=O)c1cccc(Br)c1 (stereo not drawn) | 3.59
COc1ccc(OC)c(NC(=O)c2cc(-c3cc(C)ccc3O)n[nH]2)c1 | 16.3
COc1ccc(OC2C(=O)N(c3ccc(C)c(C)c3)C2c2ccc(OC)c(OC)c2)cc1 (stereo not drawn) | 15
COc1ccc(-c2cc(C(=O)N/N=C/c3ccc(OC)c(COCC(F)(F)C(F)F)c3)c3ccccc3n2)c(OC)c1 | 19.1
COc1ccc(CCNC(=S)NC2CCN(Cc3ccccc3)CC2)cc1OC | 4.6
COc1ccc(NC(=O)CN(C)C(=O)c2sc3ccccc3c2Cl)cc1 | 13.6
COc1ccc(C(=O)NC(=S)Nc2cccc(NC(=O)c3ccco3)c2)cc1[N+](=O)[O-] | -0.152
Cn1c(=Nc2ccc(N3CCOCC3)cc2)ccc2ccccc21 | -1.7
N/C(=N\OC(=O)COc1ccccc1Cl)c1ccccn1 | 20.8
COc1ccc(CC2(CO)CCN(Cc3cccn3-c3ccccn3)CC2)cc1 | -84.2
Cc1cc(OC(C)C(=O)NCCN2CCOCC2)c2c(C)cc(=O)oc2c1 (stereo not drawn) | 17.7
